Source: the BET-seq Pho4 binding data (Le et al. 2018)
The other results are listed elsewhere or left out. Values were computed here from the reads of four pooled replicates and scatter widely.

target: T1, Pho4 (S. cerevisiae) (UniProt P07270); assay: relative binding free energy (BET-seq); higher = weaker binding; conditions: reference: library average
T1 sequence: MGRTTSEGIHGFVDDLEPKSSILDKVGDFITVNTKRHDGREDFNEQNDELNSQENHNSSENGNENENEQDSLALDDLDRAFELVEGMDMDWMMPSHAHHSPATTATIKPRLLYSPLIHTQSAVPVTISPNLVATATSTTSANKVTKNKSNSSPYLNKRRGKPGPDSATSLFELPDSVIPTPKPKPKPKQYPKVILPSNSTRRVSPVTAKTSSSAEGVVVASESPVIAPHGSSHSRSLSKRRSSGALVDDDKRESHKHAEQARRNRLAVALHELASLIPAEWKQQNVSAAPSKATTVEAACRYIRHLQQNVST

| Sequence | relative binding free energy |
| --- | --- |
| ATATTCACGTGGTGCG | -0.11 kcal/mol |
| CGTTGCACGTGCTTGT | -0.03 kcal/mol |
| AGTGACACGTGGTACG | -0.02 kcal/mol |
| AGGTTCACGTGTTCGT | 0.27 kcal/mol |
| AAGAGCACGTGTGTGA | 0.02 kcal/mol |
| GAAGGCACGTGGCATG | -0.09 kcal/mol |
| TGTTTCACGTGTTGCA | 0.19 kcal/mol |
| GAGTACACGTGTAGGG | 0.26 kcal/mol |
| TGTTTCACGTGGTTGC | 0.24 kcal/mol |
| CTGTTCACGTGTTTAG | 0.26 kcal/mol |
| CGATGCACGTGGGCGG | -0.11 kcal/mol |
| CTGGGCACGTGGGACA | -0.15 kcal/mol |
| GGTGACACGTGTAGTC | 0.17 kcal/mol |
| CAGTACACGTGTAGGT | 0.19 kcal/mol |
| ATGTGCACGTGTCATT | -0.15 kcal/mol |
| TAAAGCACGTGTCGGG | -0.05 kcal/mol |
| TTGGACACGTGTAGGA | 0.11 kcal/mol |
| ACTGGCACGTGGTTAT | -0.28 kcal/mol |
| TGGGTCACGTGGGAAG | 0.04 kcal/mol |
| GTGGGCACGTGTAGGG | 0.04 kcal/mol |
| TTGATCACGTGTTTGG | 0.15 kcal/mol |
| GGTACCACGTGTGTTG | -0.04 kcal/mol |
| ATGCGCACGTGTCGGG | 0.03 kcal/mol |

| Sequence | relative binding free energy |
| --- | --- |
| TTATTCACGTGCTGGG | 0.28 kcal/mol |
| TGTGCCACGTGGGAGA | -0.22 kcal/mol |
| TCTCACACGTGGTGTG | 0 kcal/mol |
| GGCTGCACGTGTTGAT | 0.14 kcal/mol |
| TAGTCCACGTGGGGTT | -0.06 kcal/mol |
| TCAGTCACGTGGTGGC | -0.04 kcal/mol |
| ATCTGCACGTGGAGTT | 0.03 kcal/mol |
| TCGGGCACGTGTTTGG | 0.01 kcal/mol |
| TGGGTCACGTGTAGGT | 0.17 kcal/mol |
| AGGTACACGTGAGTTA | 0.41 kcal/mol |
| TGATCCACGTGGTGGT | -0.03 kcal/mol |
| CGATGCACGTGTAGTT | 0.13 kcal/mol |
| GTAATCACGTGATGTA | 0.28 kcal/mol |
| GTGTGCACGTGGCATG | -0.2 kcal/mol |
| TTTTTCACGTGAGAGG | 0.47 kcal/mol |
| TTCTTCACGTGTAAGA | 0.35 kcal/mol |
| CGAGACACGTGGGATG | -0.06 kcal/mol |
| AGGTACACGTGTGCGG | -0.02 kcal/mol |
| TCAATCACGTGTTGGA | 0.26 kcal/mol |
| TGTTACACGTGGGCTG | -0.12 kcal/mol |
| GCTAGCACGTGTGGGC | 0.07 kcal/mol |
| GGTTTCACGTGGTGGT | 0.38 kcal/mol |
| AACTTCACGTGTAGGG | 0.17 kcal/mol |

| Sequence | relative binding free energy |
| --- | --- |
| CGTAGCACGTGTGTGT | -0.08 kcal/mol |
| ATTTGCACGTGGATAG | 0.06 kcal/mol |
| GGTCTCACGTGAGTGT | 0.34 kcal/mol |
| GTTTTCACGTGAGAGT | 0.61 kcal/mol |
| ACGGGCACGTGGGGTT | -0.25 kcal/mol |
| TTTAGCACGTGATAAG | -0.06 kcal/mol |
| TTCGCCACGTGTGGTT | 0.04 kcal/mol |
| ATTATCACGTGTGATT | 0.24 kcal/mol |
| TGTTCCACGTGAATTA | 0.43 kcal/mol |
| TTCGACACGTGGGGTT | -0.04 kcal/mol |
| TAATGCACGTGGGGAA | -0.15 kcal/mol |
| GGTGGCACGTGAGGGC | 0.14 kcal/mol |
| TTGGCCACGTGTGTTA | 0.09 kcal/mol |
| ATTAGCACGTGGTTTC | -0.12 kcal/mol |
| TGGGGCACGTGGGCTT | -0.16 kcal/mol |
| TGAGTCACGTGGGCTA | -0.03 kcal/mol |
| CGGTGCACGTGAAGGA | 0.1 kcal/mol |
| AGATGCACGTGTAGGC | -0.01 kcal/mol |
| GTCGGCACGTGTTCGG | -0.15 kcal/mol |
| GCTGGCACGTGGTGGC | -0.06 kcal/mol |
| TTACGCACGTGTGAGA | 0.17 kcal/mol |
| GATAGCACGTGATTTG | 0.05 kcal/mol |
| TAGTTCACGTGGTTTG | 0.33 kcal/mol |

| Sequence | relative binding free energy |
| --- | --- |
| TTAAACACGTGTAATT | 0.09 kcal/mol |
| AGGCTCACGTGGGGAT | 0.06 kcal/mol |
| GGTGTCACGTGAGATG | 0.42 kcal/mol |
| AGATTCACGTGTTCGG | 0.23 kcal/mol |
| GATAGCACGTGGGGGG | -0.17 kcal/mol |
| CTTGCCACGTGTGTGT | -0.25 kcal/mol |
| CTGGGCACGTGCGGGA | -0.15 kcal/mol |
| ACTTTCACGTGTGTAA | 0.2 kcal/mol |
| GTTCGCACGTGTGGTT | 0.09 kcal/mol |
| TGGGACACGTGGGGTC | -0.11 kcal/mol |
| CGTGTCACGTGTTTTT | 0.12 kcal/mol |
| TAGATCACGTGGGACT | 0.1 kcal/mol |
| GAGGGCACGTGAGGGA | 0.13 kcal/mol |
| ATTTGCACGTGATTAC | 0.16 kcal/mol |
| TCTGGCACGTGGCTTG | -0.09 kcal/mol |
| GCGGTCACGTGGAGTA | 0.12 kcal/mol |
| CAGTACACGTGGTAGG | 0 kcal/mol |
| TACAGCACGTGGGCGG | -0.35 kcal/mol |
| TGCGTCACGTGGAGTC | 0.12 kcal/mol |
| TTATGCACGTGGGGAT | -0.09 kcal/mol |
| TTAGGCACGTGTCGTT | 0.01 kcal/mol |
| GTTATCACGTGCGGTT | 0.24 kcal/mol |
| GTTCTCACGTGCTTGG | 0.21 kcal/mol |

| Sequence | relative binding free energy |
| --- | --- |
| TGAAGCACGTGCGTGA | -0.07 kcal/mol |
| TAGAACACGTGGGGTA | -0.12 kcal/mol |
| AGTGTCACGTGGCGTC | -0.1 kcal/mol |
| TTGGACACGTGGCGTC | -0.09 kcal/mol |
| TTGGTCACGTGTCTGG | 0.16 kcal/mol |
| TGGTTCACGTGGGTCC | 0.15 kcal/mol |
| AGGAGCACGTGATCGG | -0.02 kcal/mol |
| ATGTTCACGTGCAATT | 0.22 kcal/mol |
| TAGTGCACGTGAAGCG | 0.3 kcal/mol |
| TGTGGCACGTGCAGGT | -0.12 kcal/mol |
| AACTTCACGTGGTTTT | 0.21 kcal/mol |
| TAGCACACGTGATGGG | 0.25 kcal/mol |
| GAATGCACGTGGTCAT | 0.09 kcal/mol |
| GGTAGCACGTGTCGAG | -0.03 kcal/mol |
| TAACACACGTGGTGGG | -0.03 kcal/mol |
| AATGGCACGTGTTAGC | -0.11 kcal/mol |
| GGTGCCACGTGTGGCA | -0.02 kcal/mol |
| TGAGTCACGTGCGGAG | -0.01 kcal/mol |
| TGGCACACGTGGAGGG | 0.03 kcal/mol |
| GATGCCACGTGGTAGT | -0.03 kcal/mol |
| TTATGCACGTGGACGG | 0.01 kcal/mol |
| AGGCGCACGTGCGGTG | -0.05 kcal/mol |
| ACTGGCACGTGGTAGA | -0.13 kcal/mol |
